Some of the results follow. At the low end of the ranking, values are background and their order means little. Measured with an extract: partners may take part in the binding.

The target in this test is T1, HNF4alpha8 (COS-7 nuclear extract) (UniProt P41235-5).
T1 sequence: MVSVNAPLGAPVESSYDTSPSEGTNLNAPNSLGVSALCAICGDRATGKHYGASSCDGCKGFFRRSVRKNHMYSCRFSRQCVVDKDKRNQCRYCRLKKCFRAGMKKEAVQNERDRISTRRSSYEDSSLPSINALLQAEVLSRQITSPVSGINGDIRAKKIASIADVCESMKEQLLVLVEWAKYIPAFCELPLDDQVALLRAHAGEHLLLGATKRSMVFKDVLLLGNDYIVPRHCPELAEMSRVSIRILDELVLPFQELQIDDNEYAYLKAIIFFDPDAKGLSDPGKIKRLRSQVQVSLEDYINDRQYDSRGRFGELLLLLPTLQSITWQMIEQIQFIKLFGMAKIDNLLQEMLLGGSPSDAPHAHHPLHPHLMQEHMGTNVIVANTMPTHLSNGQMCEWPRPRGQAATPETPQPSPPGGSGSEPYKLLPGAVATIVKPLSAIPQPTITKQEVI
Kind of test: protein-binding microarray. The following applies: COS-7 nuclear extract on double-stranded Agilent 4x180k PBM; binding buffer, salt, pH and temperature not given; high values mean tight binding; double strand, one strand shown; sequences stand for … in …GCCTAGGGAGATTAGAGTATCGGTCGA
Turning to CCTGAAAGGTAGGCAGAGAGGCTGCTCAGT, the binding signal (log2 normalized intensity) was -1.18.
The same measure for CCTTTGGACTGTGACCCCACCTCTCAGACA: 5.4; for ACCCTTCCCTAAGATTTATCCCAAATGTTT: 1.14; for ATGTGCCTGATGGGATGAGAGAGCCCCTGT: 1.67.
The same measure for CTGGCAGGGAGGAGGGATCAAGCAGGTGAC: -0.994; for AACAGCGAACATGAGGAATAAACTTCTGTC: -1.2; for AGAATTGAAGAGAGTTAGGGCCTTGCTATG: -1.01.
As for ACAGCTCTTGTGCTCTGGACATACCTCTAA, the binding signal (log2 normalized intensity) was -1.06.
Regarding CAAAGGACCAAAAGATATTTGCTGCTGACA, the binding signal (log2 normalized intensity) was -1.2.
As for ACTACTAACCGAAAGTCTGACCCTTGACCA, the binding signal (log2 normalized intensity) came out at 7.2.
Consider GGAATGTGGATGCTGGAATGAGGGAGGCAG, for which the binding signal (log2 normalized intensity) is -1.11.
As for ACCTGGGCAACAGGGAGCCCTTATATCCAC, the binding signal (log2 normalized intensity) was -1.42.
Regarding CCTTCTTGGCAAGTTAATGTGGCCTAATGT, the binding signal (log2 normalized intensity) was determined as 1.85.
CCAATGTTTACCAGCTCTGTTGCTTATCTT: the binding signal (log2 normalized intensity) turned out to be 0.114.
For the sequence CTGAACTTTAGCTCACTGTTGAACATTAAC, the binding signal (log2 normalized intensity) was found to be 1.54.
Take TGAAATTTGTATCTTGGGTTAGGCCTTTAG: the binding signal (log2 normalized intensity) is 0.771.
In the case of ACAGCCTCTAAGCACGGCCAGGATTAACCA, the binding signal (log2 normalized intensity) is -1.24.
For AGGACATAGTCCTCTGCATATTTCTGCTAC, the binding signal (log2 normalized intensity) was -1.34.
With CCTTTTATTTTCTTATCTGCCTAGGCATTT, the binding signal (log2 normalized intensity) stood at 1.58.
The same measure for CACGGTGGACATTGTCCAAGGGCTGTAGCA: 0.859; for GGGTTCAGATGAAAGGCGGCAACTTCTTCA: -1.26.
TTCTTTTATCACTTTGTAATGTCCCTCTTT: the binding signal (log2 normalized intensity) stood at 2.06.
The same measure for ACCCATGTTTGCCCTTGATAAGAGCTGCTC: 0.685.
Consider TCACGGCAGCTTGTACCCTTCTTTCCACCC, for which the binding signal (log2 normalized intensity) worked out at 1.7.
Consider TCTCTGCTGGGCAGAGGGACAACTGAGTTA, for which the binding signal (log2 normalized intensity) was 0.311.
Regarding AAGCAATAGGGTTCGGTGCAATAACACCTA, the binding signal (log2 normalized intensity) is -1.2.
AGGTGGTTCACAAATAGCAGAAAATCCAGG: the binding signal (log2 normalized intensity) is -0.907.
For the sequence AAGGCTTTGAAGTCTGGTGGCAAGTACCCT, the binding signal (log2 normalized intensity) is -0.423.
For the sequence CCTCTGGCCACCAGTTATTCATGTCCCTAC, the binding signal (log2 normalized intensity) is -0.0166.
With AGCCTGTGTGCTGAGAGTTGGAAAATGTCG, the binding signal (log2 normalized intensity) is 0.798.
As to TTGAGCTGCATATTTGAGTAGGATTTTGCT, the binding signal (log2 normalized intensity) is -1.23.
For GGCCAGGTGGGCTGCTCCCAGTGCCCTTTG, the binding signal (log2 normalized intensity) was 4.47.
As to TGATATTGGGTGAGTGTTAGAGCACCCTCT, the binding signal (log2 normalized intensity) worked out at 0.926.
As for CCAAATGACGCTTTAAGTAGGCACTATTAT, the binding signal (log2 normalized intensity) was -1.18.
AGGTTAAGACTTTGAATCAGTAAATATTTG: the binding signal (log2 normalized intensity) is 1.2.
With ATGTTCAGGATTACTATAGGTTCTACTCTC, the binding signal (log2 normalized intensity) was -1.19.
The same measure for CAAAACTTCACCTCCCCTAGACTTACTATT: 1.73.
Turning to CCATGCTCTTTGGCCTGGCATTTGAGACTA, the binding signal (log2 normalized intensity) is 0.329.
GCGCGGACATAAAATTAAAGCGGACGGGCT: the binding signal (log2 normalized intensity) is -1.34.
For the sequence ACCTACGGGTCAAGGGTTCAGGGCTCAGTT, the binding signal (log2 normalized intensity) was 2.57.
The same measure for AGGGGCTATTTCTGACCTTTGCACCAGAGA: 7.69; for AGATTGCATCTGTTTTTATTTCCCCTTTCT: 1.87; for TTTGTGAGAGGTCAATGTCCAGTTCCGCTG: 5.02.
In the case of ATGATTGCTCTCTACTTGGTGGGAGGAGGG, the binding signal (log2 normalized intensity) is -1.29.
For AGGGCACTGGGGATAGAATCAAAGGTCAGG the value was 4.67.
For ATGTCATTTAAGACGAGTGGTTTGAGGTCA, the binding signal (log2 normalized intensity) was determined as 3.2.
For the sequence CACAAATCTCCACAAACATACAACCATCAA, the binding signal (log2 normalized intensity) is -0.987.
Consider AGATAATGGATTGGGGGCCATGTCTCAGCC, for which the binding signal (log2 normalized intensity) is -0.922.
The same measure for GCAAAGACTCAAATCCAAGCTGGCTGGCTT: -1.35; for AGGCCAGGGGCACTCTCTGTTATCAGACAC: -1.12; for CAGCTGGAAGGTATTGTCATTATTCCAGCT: -1.43.
As for AACCCCTATGTTTAATGTATAAACCCTGAG, the binding signal (log2 normalized intensity) was 1.17.
For ACATCCCACTCAAAGGTCAGGGCTAGGCTG, the binding signal (log2 normalized intensity) is 0.754.
The same measure for GAAGAGATCAAAGTTCTGTTTGTATAACCC: 2.92.
On to CAGTTGGCCACCTTTGGCCGAAACTCAGTG, for which the binding signal (log2 normalized intensity) worked out at 1.78.
For GACCAGGTTGTGAGGGAGGGCACAGGCAAC, the binding signal (log2 normalized intensity) was -0.883.
Consider ATAGCCACCAGGGCCTCTGAGATAAGGGTT, for which the binding signal (log2 normalized intensity) is -1.31.
Take GAGGGGGCGGGGAGAGGGAAGAGTCTTCTC: the binding signal (log2 normalized intensity) is -1.37.
In the case of CGTGAGTATTTTTTCAACATATACTTTGAA, the binding signal (log2 normalized intensity) was found to be 1.55.
For AATTGAACTGAAATATGAACTGCTGCCTAC, the binding signal (log2 normalized intensity) was -1.25.
TAAATCTCTAGTCCCAGCCTAGGCCTTTGT: the binding signal (log2 normalized intensity) is 0.204.
CTCCCCTTGTCTGATAAGATTCAGAACCCA: the binding signal (log2 normalized intensity) is 1.46.
As to TGGAACTGAAGGCAGGAAAGGGCCTCTCAG, the binding signal (log2 normalized intensity) is -1.31.
Turning to GTGAAATAGGAGGATTTTATTCAGGTGGCC, the binding signal (log2 normalized intensity) came out at 0.784.
For CAAAAACAATCAGGGGTTAGGGTGAAGTAA, the binding signal (log2 normalized intensity) was -1.19.
CTTAGTGATTAGAAGAAAAGAGTTGCTCAA: the binding signal (log2 normalized intensity) was -1.41.
Turning to AAGGATCAAGGACCTGCTCTGGGGCTACCT, the binding signal (log2 normalized intensity) is -1.28.
As to AATGTGTGTTCTGCTGCCATTGGATGGAAT, the binding signal (log2 normalized intensity) stood at 1.51.
The same measure for ATCATTCATGGGCCAAAGTTTGTTTCTTAT: 1.98; for CTCCTCATTCCTTTCTAATCTCAAAGTGTC: 1.71.
Turning to TTCTAAAGGCACAATCAGGGCTAAAGTCAG, the binding signal (log2 normalized intensity) is -1.31.
For AAGAGGCCCATCTCACACATAATGATACCA, the binding signal (log2 normalized intensity) is -0.801.
For GTCAACAAGATTCCTTGAGCATTCCAAAAA, the binding signal (log2 normalized intensity) was -1.37.
